# Reference: article PMC4336329 (PLoS ONE, 2015)
# Screen size: about 310,000 compounds; about 2,200 (0.71%) showed an effect of 50% or more. Effects have a minus sign here. The list shows a part of the results.
# Target: human ether-à-go-go-related gene (hERG) potassium channel (human, UniProt Q12809)
# Test: primary screen, population patch clamp on CHO cells stably expressing hERG
# human ether-à-go-go-related gene (hERG) potassium channel, sequence (Q12809 whole entry, looked up): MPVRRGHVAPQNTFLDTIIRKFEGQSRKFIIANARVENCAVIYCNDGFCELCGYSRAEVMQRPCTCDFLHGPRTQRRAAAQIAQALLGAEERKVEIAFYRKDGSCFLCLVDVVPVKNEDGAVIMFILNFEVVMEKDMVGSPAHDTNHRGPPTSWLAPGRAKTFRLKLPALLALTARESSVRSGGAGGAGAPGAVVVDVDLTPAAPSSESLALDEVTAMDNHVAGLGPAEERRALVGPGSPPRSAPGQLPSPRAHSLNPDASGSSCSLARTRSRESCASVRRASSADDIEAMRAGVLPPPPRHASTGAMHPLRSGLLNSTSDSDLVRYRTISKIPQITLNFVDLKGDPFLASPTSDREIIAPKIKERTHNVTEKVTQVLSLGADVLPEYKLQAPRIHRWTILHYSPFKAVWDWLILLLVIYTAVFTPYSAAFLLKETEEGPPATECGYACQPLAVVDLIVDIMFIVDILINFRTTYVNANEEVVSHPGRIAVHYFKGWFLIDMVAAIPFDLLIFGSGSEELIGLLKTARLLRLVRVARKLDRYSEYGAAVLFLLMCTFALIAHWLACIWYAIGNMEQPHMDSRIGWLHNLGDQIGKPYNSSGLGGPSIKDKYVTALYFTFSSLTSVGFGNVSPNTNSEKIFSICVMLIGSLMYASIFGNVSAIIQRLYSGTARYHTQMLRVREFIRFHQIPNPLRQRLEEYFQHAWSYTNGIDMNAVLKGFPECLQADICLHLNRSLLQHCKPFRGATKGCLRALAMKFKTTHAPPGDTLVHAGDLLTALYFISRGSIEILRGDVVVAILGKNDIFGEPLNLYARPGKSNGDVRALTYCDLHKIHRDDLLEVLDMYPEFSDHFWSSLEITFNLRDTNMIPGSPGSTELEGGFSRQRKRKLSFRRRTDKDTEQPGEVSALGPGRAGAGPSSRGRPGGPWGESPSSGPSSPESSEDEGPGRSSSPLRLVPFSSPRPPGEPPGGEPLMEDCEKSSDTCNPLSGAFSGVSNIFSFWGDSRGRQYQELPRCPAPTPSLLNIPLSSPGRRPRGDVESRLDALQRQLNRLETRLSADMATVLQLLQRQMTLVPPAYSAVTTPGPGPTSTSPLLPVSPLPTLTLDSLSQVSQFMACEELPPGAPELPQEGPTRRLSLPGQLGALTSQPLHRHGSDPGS
row,SMILES,"hERG current change (%, negative = inhibition) at 1uM [%]"
1,Cc1cc([N+](=O)[O-])nn1Cc1noc(C(=O)NCCCn2ccnc2)n1,12.5
2,COc1cccc(OC)c1C(=O)NC(=S)Nc1ccc(S(=O)(=O)Nc2nccs2)cc1,13.3
3,COCCN(CCOC)Cc1c(O)ccc2c1O/C(=C\c1ccc(C)o1)C2=O,22.1
4,C#CC1(OC(=O)c2ccccc2)CC(C)N(C)CC1C.Cl (stereo not drawn),9.22
5,Cc1ccc(C(C)NC(=O)c2cccnc2)cc1 (stereo not drawn),7.26
6,COCOc1ccc(C=O)c(OCOC)c1,15.1
7,Cc1ccc(SCCCCN2C(=O)NC(C)(C)C2=O)cc1,9.43
8,COc1cc2c(C(=O)NCc3ccc4c(c3)OCO4)cn(CC(C)C)c(=O)c2cc1OC,10.6
9,COc1ccccc1N(CC(=O)Nc1c(C)cccc1C)S(C)(=O)=O,2.42
10,COc1ccc(N2CCN(S(=O)(=O)CCNC(=O)C34CC5CC(CC(C5)C3)C4)CC2)cc1,21.7
11,CCOC(=O)Cn1nc(C)c(NC(=O)COc2ccccc2[N+](=O)[O-])c1C,9.44
12,CC(C)Cn1c(CN2CCCCC2C)nc2c1c(=O)n(C)c(=O)n2C (stereo not drawn),14.8
13,COc1ccc(-c2nc(N3CCC(C)CC3)[nH]c(=O)c2C#N)cc1,10.7
14,Fc1ccc(-c2nnc(CSc3nnc4ccccn34)o2)cc1,-0.267
15,CSCC[C@H](NC(=O)C1CCN(C(=O)[C@@H](N)Cc2ccccc2)CC1)C(=O)O,11.7
16,CCCc1cc(=O)[nH]c(SCC(=O)N(CC)Cc2ccccc2)n1,8.87
17,Clc1ccc2c(c1)C(OC1CN3CCC1CC3)c1ccccc1CS2.O=C(O)/C=C\C(=O)O (stereo not drawn),-7.47
18,N#Cc1nc(COc2ccccc2)oc1N1CCN(c2cccc(Cl)c2)CC1,3.23
19,CSc1ccccc1NC(=O)N1CCC(CO)(CC2CCCCO2)CC1 (stereo not drawn),15.5
20,CCCc1cc(=O)[nH]c(Nc2cc(OC)ccc2OC)n1,4.82
21,CC(=O)Nc1nnc(SCC(=O)NC2CCCC2)s1,16.2
22,Cc1ccccc1-n1nnnc1SC(C)C(=O)NC1CCCc2ccccc21 (stereo not drawn),0.307
23,Cc1cc(Cn2nc(-c3ccccc3)cc2C(=O)NCC2CC2)on1,16.7

row,SMILES,"hERG current change (%, negative = inhibition) at 1uM [%]"
1,COc1ccc(N(CC(=O)NC2CC3CCC2C3)S(=O)(=O)c2ccc(C)cc2)cc1OC (stereo not drawn),29.4
2,CCOc1ccc(-c2nnn(CCC#N)n2)cc1OC,12.8
3,Cc1ccc2c(C)c(C(=O)Nc3ccc(S(=O)(=O)Nc4onc(C)c4C)cc3)oc2c1,9.22
4,Nn1c(Cc2ccc(F)cc2)n[nH]c1=S,8.02
5,CCC(Cc1ccccc1)NC(=O)C1CCN(c2nn3c(=O)cc(C)nc3s2)CC1 (stereo not drawn),10.4
6,COc1cccc(NCc2cc(=O)oc3cc(C)c(C(C)C)cc23)c1,14.4
7,COc1ccccc1N1CCN(Cc2c[nH]c3ccccc23)CC1,-9.46
8,c1cc2c(cc1C1CCCCC1)c1c3n2CCN=C3CCC1,11.4
9,CC(=O)c1ccc(NC(=O)Nc2ccc([N+](=O)[O-])cc2C)cc1,1.37
10,NC(=S)N=Nc1c(O)n(Cc2ccc(F)cc2)c2ccccc12,14.5
11,COCCn1c(C)cc(/C=C2\NC(=S)N(C)C2=O)c1C,9.65
12,O=Cc1cc(N=Nc2ccc(S(=O)(=O)[O-])cc2)ccc1O.[Na+],21.8
13,COc1cc(SC)ccc1C(=O)Nc1ccccc1C#N,15.1
14,COc1cc(/C=N/NC(=O)c2cc3ccccc3cc2O)ccc1OCCN1CCCCC1,-2.7
15,COc1ccc(C(=O)CNc2ccccc2C#N)cc1,2.43
16,COc1ccc(CC(C)NC2CCCCCC2)cc1 (stereo not drawn),13.6
17,O=C(/C=C\Nc1ccc(Cl)cn1)c1ccc(Br)cc1,9.66
18,O=C(CSc1ccc(Cl)cc1)OCc1nnc(-c2ccccc2)o1,6.44
19,CC(N=c1ccccn1C(=O)Nc1cccc(C(F)(F)F)c1)c1ccco1 (stereo not drawn),6.89
20,CC(/C=C/c1ccccc1)=N/NC(=O)C(O)c1ccccc1 (stereo not drawn),49.2
21,COc1ccccc1CC(=O)Nc1ccc(NC(=O)c2cccs2)cc1,-7.36
22,C#CCNC(=O)C1=C[C@@H](c2ccccc2)[C@H](CCCO)[C@@H](OCC)O1,15.8
